# According to the supplement of paper PMC8728848:
# The list shows a part of the results.
# Key:
# Assay in all cases: glycan array binding signal (z-score within array); higher = stronger binding
# Settings in all cases: glycan notation: IUPAC condensed, linker removed
# [1] = target: Gal(b1-4)GlcNAc(b1-3)Gal(b1-4)GlcNAc(b1-2)Man(a1-3)[Gal(b1-4)GlcNAc(b1-3)Gal(b1-4)GlcNAc(b1-2)Man(a1-6)]Man(b1-4)GlcNAc(b1-4)[Fuc(a1-6)]GlcNAc
# Outline: (§1)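 From the Consortium for Functional Glycomics database, 3228 arrays were curated, keeping only those whose protein sequence was available. Binding is given as a within-array Z-score averaged across arrays sharing a protein sequence and across linkers. Negative Z-scores can be read as non-binding.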
# [2] = target: Gal(b1-4)GlcNAc(b1-3)Gal(b1-4)GlcNAc(b1-2)[Gal(b1-4)GlcNAc(b1-3)Gal(b1-4)GlcNAc(b1-6)]Man(a1-6)[Gal(b1-4)GlcNAc(b1-3)Gal(b1-4)GlcNAc(b1-2)Man(a1-3)]Man(b1-4)GlcNAc(b1-4)GlcNAc
# Outline: as §1
# [3] = target: Gal(b1-4)GlcNAc(b1-3)Gal(b1-4)GlcNAc(b1-2)[Gal(b1-4)GlcNAc(b1-3)Gal(b1-4)GlcNAc(b1-6)]Man(a1-6)[Gal(b1-4)GlcNAc(b1-3)Gal(b1-4)GlcNAc(b1-2)Man(a1-3)]Man(b1-4)GlcNAc(b1-4)[Fuc(a1-6)]GlcNAc
# Outline: as §1
# [4] = target: Gal(b1-4)GlcNAc(b1-3)Gal(b1-4)GlcNAc(b1-3)Gal(b1-4)GlcNAc
# Outline: as §1
# [5] = target: Gal(b1-4)GlcNAc(b1-3)Gal(b1-4)GlcNAc(b1-3)Gal(b1-4)GlcNAc(b1-2)Man(a1-3)[Gal(b1-4)GlcNAc(b1-3)Gal(b1-4)GlcNAc(b1-3)Gal(b1-4)GlcNAc(b1-2)Man(a1-6)]Man(b1-4)GlcNAc(b1-4)GlcNAc
# Outline: as §1
# [6] = target: Gal(b1-4)GlcNAc(b1-3)Gal(b1-4)GlcNAc(b1-3)Gal(b1-4)GlcNAc(b1-2)Man(a1-3)[Gal(b1-4)GlcNAc(b1-3)Gal(b1-4)GlcNAc(b1-3)Gal(b1-4)GlcNAc(b1-2)Man(a1-6)]Man(b1-4)GlcNAc(b1-4)[Fuc(a1-6)]GlcNAc
# Outline: as §1
# [7] = target: Gal(b1-4)GlcNAc(b1-3)Gal(b1-4)GlcNAc(b1-3)Gal(b1-4)GlcNAc(b1-2)[Gal(b1-4)GlcNAc(b1-3)Gal(b1-4)GlcNAc(b1-3)Gal(b1-4)GlcNAc(b1-6)]Man(a1-6)[Gal(b1-4)GlcNAc(b1-3)Gal(b1-4)GlcNAc(b1-3)Gal(b1-4)GlcNAc(b1-2)Man(a1-3)]Man(b1-4)GlcNAc(b1-4)[Fuc(a1-6)]GlcNAc
# Outline: as §1
# [8] = target: Gal(b1-4)GlcNAc(b1-3)Gal(b1-4)GlcNAc(b1-3)Gal(b1-4)GlcNAc(b1-3)Gal(b1-4)GlcNAc(b1-2)Man(a1-3)[Gal(b1-4)GlcNAc(b1-3)Gal(b1-4)GlcNAc(b1-3)Gal(b1-4)GlcNAc(b1-3)Gal(b1-4)GlcNAc(b1-2)Man(a1-6)]Man(b1-4)GlcNAc(b1-4)GlcNAc
# Outline: as §1
# [9] = target: Gal(b1-4)GlcNAc(b1-3)Gal(b1-4)GlcNAc(b1-3)Gal(b1-4)GlcNAc(b1-3)Gal(b1-4)GlcNAc(b1-2)Man(a1-3)[Gal(b1-4)GlcNAc(b1-3)Gal(b1-4)GlcNAc(b1-3)Gal(b1-4)GlcNAc(b1-3)Gal(b1-4)GlcNAc(b1-2)Man(a1-6)]Man(b1-4)GlcNAc(b1-4)[Fuc(a1-6)]GlcNAc
# Outline: as §1
# [10] = target: Gal(b1-4)GlcNAc(b1-3)Gal(b1-4)GlcNAc(b1-3)Gal(b1-4)GlcNAc(b1-3)Gal(b1-4)GlcNAc(b1-2)[Gal(b1-4)GlcNAc(b1-3)Gal(b1-4)GlcNAc(b1-3)Gal(b1-4)GlcNAc(b1-3)Gal(b1-4)GlcNAc(b1-6)]Man(a1-6)[Gal(b1-4)GlcNAc(b1-3)Gal(b1-4)GlcNAc(b1-3)Gal(b1-4)GlcNAc(b1-3)Gal(b1-4)GlcNAc(b1-2)Man(a1-3)]Man(b1-4)GlcNAc(b1-4)[Fuc(a1-6)]GlcNAc
# Outline: as §1
# [11] = target: Gal(b1-4)GlcNAc(b1-3)Gal(b1-4)GlcNAc(b1-3)Gal(b1-4)GlcNAc(b1-3)Gal(b1-4)GlcNAc(b1-3)Gal(b1-4)GlcNAc(b1-2)Man(a1-3)[Gal(b1-4)GlcNAc(b1-3)Gal(b1-4)GlcNAc(b1-3)Gal(b1-4)GlcNAc(b1-3)Gal(b1-4)GlcNAc(b1-3)Gal(b1-4)GlcNAc(b1-2)Man(a1-6)]Man(b1-4)GlcNAc(b1-4)GlcNAc
# Outline: as §1
# [12] = target: Gal(b1-4)GlcNAc(b1-3)Gal(b1-4)GlcNAc(b1-3)Gal(b1-4)GlcNAc(b1-3)Gal(b1-4)GlcNAc(b1-3)Gal(b1-4)GlcNAc(b1-2)Man(a1-3)[Gal(b1-4)GlcNAc(b1-3)Gal(b1-4)GlcNAc(b1-3)Gal(b1-4)GlcNAc(b1-3)Gal(b1-4)GlcNAc(b1-3)Gal(b1-4)GlcNAc(b1-2)Man(a1-6)]Man(b1-4)GlcNAc(b1-4)[Fuc(a1-6)]GlcNAc
# Outline: as §1
# [13] = target: Gal(b1-4)GlcNAc(b1-3)Gal(b1-4)GlcNAc(b1-3)Gal(b1-4)GlcNAc(b1-3)Gal(b1-4)GlcNAc(b1-3)Gal(b1-4)GlcNAc(b1-2)[Gal(b1-4)GlcNAc(b1-3)Gal(b1-4)GlcNAc(b1-3)Gal(b1-4)GlcNAc(b1-3)Gal(b1-4)GlcNAc(b1-3)Gal(b1-4)GlcNAc(b1-6)]Man(a1-6)[Gal(b1-4)GlcNAc(b1-3)Gal(b1-4)GlcNAc(b1-3)Gal(b1-4)GlcNAc(b1-3)Gal(b1-4)GlcNAc(b1-3)Gal(b1-4)GlcNAc(b1-2)Man(a1-3)]Man(b1-4)GlcNAc(b1-4)[Fuc(a1-6)]GlcNAc
# Outline: as §1
# [14] = target: Gal(b1-4)GlcNAc(b1-3)Gal(b1-4)GlcNAc(b1-3)Gal(b1-4)GlcNAc(b1-3)Gal(b1-4)GlcNAc(b1-3)Gal(b1-4)GlcNAc(b1-3)Gal(b1-4)GlcNAc(b1-2)Man(a1-3)[Gal(b1-4)GlcNAc(b1-3)Gal(b1-4)GlcNAc(b1-3)Gal(b1-4)GlcNAc(b1-3)Gal(b1-4)GlcNAc(b1-3)Gal(b1-4)GlcNAc(b1-3)Gal(b1-4)GlcNAc(b1-2)Man(a1-6)]Man(b1-4)GlcNAc(b1-4)GlcNAc
# Outline: as §1
# [15] = target: Gal(b1-4)GlcNAc(b1-3)Gal(b1-4)GlcNAc(b1-3)GalNAc
# Outline: as §1
# [16] = target: Gal(b1-4)GlcNAc(b1-3)Gal(b1-4)GlcNAc(b1-3)[Gal(b1-4)GlcNAc(b1-3)Gal(b1-4)GlcNAc(b1-6)]GalNAc
# Outline: as §1
# [17] = target: Gal(b1-4)GlcNAc(b1-3)Gal(b1-4)GlcNAc(b1-6)[Gal(b1-3)]GalNAc
# Outline: as §1
# [18] = target: Gal(b1-4)GlcNAc(b1-3)Gal(b1-4)[Fuc(a1-3)GlcNAc(b1-6)]Gal(b1-4)Glc
# Outline: as §1
# [19] = target: Gal(b1-4)GlcNAc(b1-3)Gal(b1-4)[Fuc(a1-3)]GlcNAc(b1-3)Gal(b1-4)[Fuc(a1-3)]GlcNAc
# Outline: as §1
# [20] = target: Gal(b1-4)GlcNAc(b1-3)GalNAc
# Outline: as §1
# [21] = target: Gal(b1-4)GlcNAc(b1-3)[Fuc(a1-3)GlcNAc(b1-6)]Gal(b1-4)Glc
# Outline: as §1
# [22] = target: Gal(b1-4)GlcNAc(b1-3)[Gal(b1-4)GlcNAc(b1-6)]Gal(b1-4)GlcNAc
# Outline: as §1
# [23] = target: Gal(b1-4)GlcNAc(b1-3)[Gal(b1-4)GlcNAc(b1-6)]GalNAc
# Outline: as §1
# [24] = target: Gal(b1-4)GlcNAc(b1-3)[GlcNAc(b1-6)]Gal(b1-4)GlcNAc
# Outline: as §1
# [25] = target: Gal(b1-4)GlcNAc(b1-6)Gal(b1-4)GlcNAc
# Outline: as §1
# [26] = target: Gal(b1-4)GlcNAc(b1-6)GalNAc
# Outline: as §1
# [27] = target: Gal(b1-4)GlcNAc(b1-6)[Gal(b1-3)]GalNAc
# Outline: as §1
# [28] = target: Gal(b1-4)GlcNAc(b1-6)[Gal(b1-4)GlcNAc(b1-3)]GalNAc
# Outline: as §1
# Gal(b1-4)GlcNAc6P = target: Gal(b1-4)GlcNAc6P
# Outline: as §1
# Gal(b1-6)Gal = target: Gal(b1-6)Gal
# Outline: as §1
# Gal3S(b1-3)GalNAc = target: Gal3S(b1-3)GalNAc
# Outline: as §1
# Gal3S(b1-3)GlcNAc = target: Gal3S(b1-3)GlcNAc
# Outline: as §1
# [29] = target: Gal3S(b1-3)[Fuc(a1-4)]GlcNAc
# Outline: as §1
# Gal3S(b1-4)Glc = target: Gal3S(b1-4)Glc
# Outline: as §1
# Gal3S(b1-4)Glc6S = target: Gal3S(b1-4)Glc6S
# Outline: as §1
# Gal3S(b1-4)GlcNAc = target: Gal3S(b1-4)GlcNAc
# Outline: as §1
# Gal3S(b1-4)GlcNAc6S = target: Gal3S(b1-4)GlcNAc6S
# Outline: as §1
binder,measurement,setting,value
"Siglec-7-SA-PE-180 (Homo sapiens), Q9Y286 (protein) MLLLLLLPLLWGRERVEGQKSNRKDYSLTMQSSVTVQEGMCVHVRCSFSYPVDSQTDSDPVHGYWFRAGNDISWKAPVATNNPAWAVQEETRDRFHLLGDPQTKNCTLSIRDARMSDAGRYFFRMEKGNIKWNYKYDQLSVNVTALTHRPNILIPGTLESGCFQNLTCSVPWACEQGTPPMISWMGTSVSPLHPSTTRSSVLTLIPQPQHHGTSLTCQVTLPGAGVTTNRTIQLNVSYPPQNLTVTVFQGEGTASTALGNSSSLSVLEGQSLRLVCAVDSNPPARLSWTWRSLTLYPSQPSNPLVLELQVHLGDEGEFTCRAQNSLGSQHVSLNLSLQQEYTGKMRPVSGVLLGAVGGAGATALVFLSFCVIFIVVRSCRKKSARPAADVGDIGMKDANTIRGSASQGNLTESWADDNPRHHGLAAHSSGEEREIQYAPLSFHKGEPQDLSGQEATNNEYSEIKIPK",glycan array binding signal (z-score),[1],0.346
same,glycan array binding signal (z-score),[2],0.075
same,glycan array binding signal (z-score),[3],1.44
same,glycan array binding signal (z-score),[4],-0.091
same,glycan array binding signal (z-score),[5],0.23
same,glycan array binding signal (z-score),[6],0.243
same,glycan array binding signal (z-score),[7],0.678
same,glycan array binding signal (z-score),[8],0.618
same,glycan array binding signal (z-score),[9],0.025
same,glycan array binding signal (z-score),[10],-0.101
same,glycan array binding signal (z-score),[11],-0.144
same,glycan array binding signal (z-score),[12],-0.311
same,glycan array binding signal (z-score),[13],0.475
same,glycan array binding signal (z-score),[14],0.162
same,glycan array binding signal (z-score),[15],0.259
same,glycan array binding signal (z-score),[16],0.663
same,glycan array binding signal (z-score),[17],0.097
same,glycan array binding signal (z-score),[18],-0.383
same,glycan array binding signal (z-score),[19],0.047
same,glycan array binding signal (z-score),[20],-0.393
same,glycan array binding signal (z-score),[21],-0.136
same,glycan array binding signal (z-score),[22],-0.026
same,glycan array binding signal (z-score),[23],-0.453
same,glycan array binding signal (z-score),[24],-0.413
same,glycan array binding signal (z-score),[25],-0.178
same,glycan array binding signal (z-score),[26],-0.188
same,glycan array binding signal (z-score),[27],-0.175
same,glycan array binding signal (z-score),[28],0.327
same,glycan array binding signal (z-score),Gal(b1-4)GlcNAc6P,0.085
same,glycan array binding signal (z-score),Gal(b1-6)Gal,-0.239
same,glycan array binding signal (z-score),Gal3S(b1-3)GalNAc,0.178
same,glycan array binding signal (z-score),Gal3S(b1-3)GlcNAc,0.327
same,glycan array binding signal (z-score),[29],0.122
same,glycan array binding signal (z-score),Gal3S(b1-4)Glc,-0.073
same,glycan array binding signal (z-score),Gal3S(b1-4)Glc6S,0.011
same,glycan array binding signal (z-score),Gal3S(b1-4)GlcNAc,0.03
same,glycan array binding signal (z-score),Gal3S(b1-4)GlcNAc6S,1.69
